Experimental data published in patent publication US20230192795A1 (Hoffmann-La Roche, published 2023).

T1: IL-7Rα/IL-2Rγ on human T cells (human, UniProt P16871 21-459; P31785 23-369)
T1 sequence (looked up) 1: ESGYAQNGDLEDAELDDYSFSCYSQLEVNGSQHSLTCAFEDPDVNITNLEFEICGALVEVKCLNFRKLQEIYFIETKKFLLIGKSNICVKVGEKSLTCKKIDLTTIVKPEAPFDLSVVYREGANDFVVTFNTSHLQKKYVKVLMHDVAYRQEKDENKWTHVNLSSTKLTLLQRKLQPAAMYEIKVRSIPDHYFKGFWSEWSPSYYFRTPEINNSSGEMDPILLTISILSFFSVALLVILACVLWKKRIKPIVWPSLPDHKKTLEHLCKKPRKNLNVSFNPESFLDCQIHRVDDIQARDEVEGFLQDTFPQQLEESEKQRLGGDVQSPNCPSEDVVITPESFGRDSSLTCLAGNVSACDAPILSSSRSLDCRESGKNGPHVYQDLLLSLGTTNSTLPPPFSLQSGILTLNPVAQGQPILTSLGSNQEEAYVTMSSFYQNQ
T1 sequence (looked up) 2: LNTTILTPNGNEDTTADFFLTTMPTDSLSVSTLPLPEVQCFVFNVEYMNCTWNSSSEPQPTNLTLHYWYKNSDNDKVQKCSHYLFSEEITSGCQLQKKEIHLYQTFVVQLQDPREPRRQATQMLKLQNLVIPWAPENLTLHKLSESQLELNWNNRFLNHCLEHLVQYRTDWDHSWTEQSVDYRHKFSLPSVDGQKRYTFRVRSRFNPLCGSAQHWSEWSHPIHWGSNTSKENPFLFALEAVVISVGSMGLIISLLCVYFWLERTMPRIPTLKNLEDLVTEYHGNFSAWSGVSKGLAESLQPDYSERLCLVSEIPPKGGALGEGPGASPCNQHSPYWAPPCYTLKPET

B1: PD1-IL7-VAR26 (K139E) (other)
light: DIVMTQSPDSLAVSLGERATINCKASESVDTSDNSFIHWYQQKPGQSPKLLIYRSSTLESGVPDRFSGSGSGTDFTLTISSLQAEDVAVYYCQQNYDVPWTFGQGTKVEIKRTVAAPSVFIFPPSDEQLKSGTASVVCLLNNFYPREAKVQWKVDNALQSGNSQESVTEQDSKDSTYSLSSTLTLSKADYEKHKVYACEVTHQGLSSPVTKSFNRGEC
heavy 1: EVQLLESGGGLVQPGGSLRLSCAASGFSFSSYTMSWVRQAPGKGLEWVATISGGGRDIYYPDSVKGRFTISRDNSKNTLYLQMNSLRAEDTAVYYCVLLTGRVYFALDSWGQGTLVTVSSASTKGPSVFPLAPSSKSTSGGTAALGCLVKDYFPEPVTVSWNSGALTSGVHTFPAVLQSSGLYSLSSVVTVPSSSLGTQTYICNVNHKPSNTKVDKKVEPKSCDKTHTCPPCPAPEAAGGPSVFLFPPKPKDTLMISRTPEVTCVVVDVSHEDPEVKFNWYVDGVEVHNAKTKPREEQYNSTYRVVSVLTVLHQDWLNGKEYKCKVSNKALGAPIEKTISKAKGQPREPQVCTLPPSRDELTKNQVSLSCAVKGFYPSDIAVEWESNGQPENNYKTTPPVLDSDGSFFLVSKLTVDKSRWQQGNVFSCSVMHEALHNHYTQKSLSLSPGK
heavy 2: EVQLLESGGGLVQPGGSLRLSCAASGFSFSSYTMSWVRQAPGKGLEWVATISGGGRDIYYPDSVKGRFTISRDNSKNTLYLQMNSLRAEDTAVYYCVLLTGRVYFALDSWGQGTLVTVSSASTKGPSVFPLAPSSKSTSGGTAALGCLVKDYFPEPVTVSWNSGALTSGVHTFPAVLQSSGLYSLSSVVTVPSSSLGTQTYICNVNHKPSNTKVDKKV[human IgG1 Fc with changes left out]GGGGSGGGGSGGGGSDCDIEGKDGKQYESVLMVSIDQLLDSMKEIGSNCLNNEFNFFKRHICDANKEGMFLFRAARKLRQFLKMNSTGDFDLHLLKVSEGTTILLNCTGQVKGRKPAALGEAQPTKSLEENKSLKEQKKLNDLCFLKRLLQEIETCWNKILMGTKEH
notes: Format as m1; IL-7 with K139E
B2: PD1-IL7-VAR16 (L77K) (other)
light: B1 light
heavy 1: B1 heavy 1
heavy 2: EVQLLESGGGLVQPGGSLRLSCAASGFSFSSYTMSWVRQAPGKGLEWVATISGGGRDIYYPDSVKGRFTISRDNSKNTLYLQMNSLRAEDTAVYYCVLLTGRVYFALDSWGQGTLVTVSSASTKGPSVFPLAPSSKSTSGGTAALGCLVKDYFPEPVTVSWNSGALTSGVHTFPAVLQSSGLYSLSSVVTVPSSSLGTQTYICNVNHKPSNTKVDKKV[human IgG1 Fc with changes left out]GGGGSGGGGSGGGGSDCDIEGKDGKQYESVLMVSIDQLLDSMKEIGSNCLNNEFNFFKRHICDANKEGMFLFRAARKLRQFLKMNSTGDFDKHLLKVSEGTTILLNCTGQVKGRKPAALGEAQPTKSLEENKSLKEQKKLNDLCFLKRLLQEIKTCWNKILMGTKEH
notes: Format as m1; IL-7 with L77K; also called PD1-IL7 -L77K (Var16)
B3: PD1-IL7-VAR27 (N143K) (other)
light: B1 light
heavy 1: B1 heavy 1
heavy 2: EVQLLESGGGLVQPGGSLRLSCAASGFSFSSYTMSWVRQAPGKGLEWVATISGGGRDIYYPDSVKGRFTISRDNSKNTLYLQMNSLRAEDTAVYYCVLLTGRVYFALDSWGQGTLVTVSSASTKGPSVFPLAPSSKSTSGGTAALGCLVKDYFPEPVTVSWNSGALTSGVHTFPAVLQSSGLYSLSSVVTVPSSSLGTQTYICNVNHKPSNTKVDKKV[human IgG1 Fc with changes left out]GGGGSGGGGSGGGGSDCDIEGKDGKQYESVLMVSIDQLLDSMKEIGSNCLNNEFNFFKRHICDANKEGMFLFRAARKLRQFLKMNSTGDFDLHLLKVSEGTTILLNCTGQVKGRKPAALGEAQPTKSLEENKSLKEQKKLNDLCFLKRLLQEIKTCWKKILMGTKEH
notes: Format as m1; IL-7 with N143K; also called PD1-IL7 -N143K (Var27)
B4: PD1-IL7-VAR15 (L77A) (other)
light: B1 light
heavy 1: B1 heavy 1
heavy 2: EVQLLESGGGLVQPGGSLRLSCAASGFSFSSYTMSWVRQAPGKGLEWVATISGGGRDIYYPDSVKGRFTISRDNSKNTLYLQMNSLRAEDTAVYYCVLLTGRVYFALDSWGQGTLVTVSSASTKGPSVFPLAPSSKSTSGGTAALGCLVKDYFPEPVTVSWNSGALTSGVHTFPAVLQSSGLYSLSSVVTVPSSSLGTQTYICNVNHKPSNTKVDKKV[human IgG1 Fc with changes left out]GGGGSGGGGSGGGGSDCDIEGKDGKQYESVLMVSIDQLLDSMKEIGSNCLNNEFNFFKRHICDANKEGMFLFRAARKLRQFLKMNSTGDFDAHLLKVSEGTTILLNCTGQVKGRKPAALGEAQPTKSLEENKSLKEQKKLNDLCFLKRLLQEIKTCWNKILMGTKEH
notes: Format as m1; IL-7 with L77A; also called PD1-IL7 -L77A (Var15)
B5: PD1-IL7-VAR24 (Q136K) (other)
light: B1 light
heavy 1: B1 heavy 1
heavy 2: EVQLLESGGGLVQPGGSLRLSCAASGFSFSSYTMSWVRQAPGKGLEWVATISGGGRDIYYPDSVKGRFTISRDNSKNTLYLQMNSLRAEDTAVYYCVLLTGRVYFALDSWGQGTLVTVSSASTKGPSVFPLAPSSKSTSGGTAALGCLVKDYFPEPVTVSWNSGALTSGVHTFPAVLQSSGLYSLSSVVTVPSSSLGTQTYICNVNHKPSNTKVDKKV[human IgG1 Fc with changes left out]GGGGSGGGGSGGGGSDCDIEGKDGKQYESVLMVSIDQLLDSMKEIGSNCLNNEFNFFKRHICDANKEGMFLFRAARKLRQFLKMNSTGDFDLHLLKVSEGTTILLNCTGQVKGRKPAALGEAQPTKSLEENKSLKEQKKLNDLCFLKRLLKEIKTCWNKILMGTKEH
notes: Format as m1; IL-7 with Q136K
B6: PD1-IL7-VAR19 (E84A) (other)
light: B1 light
heavy 1: B1 heavy 1
heavy 2: EVQLLESGGGLVQPGGSLRLSCAASGFSFSSYTMSWVRQAPGKGLEWVATISGGGRDIYYPDSVKGRFTISRDNSKNTLYLQMNSLRAEDTAVYYCVLLTGRVYFALDSWGQGTLVTVSSASTKGPSVFPLAPSSKSTSGGTAALGCLVKDYFPEPVTVSWNSGALTSGVHTFPAVLQSSGLYSLSSVVTVPSSSLGTQTYICNVNHKPSNTKVDKKV[human IgG1 Fc with changes left out]GGGGSGGGGSGGGGSDCDIEGKDGKQYESVLMVSIDQLLDSMKEIGSNCLNNEFNFFKRHICDANKEGMFLFRAARKLRQFLKMNSTGDFDLHLLKVSAGTTILLNCTGQVKGRKPAALGEAQPTKSLEENKSLKEQKKLNDLCFLKRLLQEIKTCWNKILMGTKEH
notes: Format as m1; IL-7 with E84A
B7: Reference Molecule 1 (other)
light: DVVMTQSPLSLPVTLGQPASISCRSSQSLVHANTNTYLEWYQQRPGQSPRLLIYKVSNRFSGVPDRFSGSGSGTDFTLKISRVEAEDVGVYYCFQGTHVPNTFGQGTKLEIKRTVAAPSVFIFPPSDEQLKSGTASVVCLLNNFYPREAKVQWKVDNALQSGNSQESVTEQDSKDSTYSLSSTLTLSKADYEKHKVYACEVTHQGLSSPVTKSFNRGEC
heavy: QIQLVQSGSELKKPGASVKVSCKASGYTFTHYAMNWVRQAPGQGLEWMGWINTNTGEPTYAQGFTGRFVFSLDTSVSTAYLQISSLKAEDTAVYYCAREREPGMDNWGQGTLVTVSS[human IgG1 constant region with changes left out]GGGGSGGGGSGGGGSDCDIEGKDGKQYESVLMVSIDQLLDSMKEIGSNCLNNEFNFFKRHICDANKEGMFLFRAARKLRQFLKMNSTGEFDLHLLKVSEGTTILLNCTGQVKGRKPAALGEAQPTKSLEENKSLKEQKKLNDLCFLKRLLQEIKTCWNKILMGTKEH
B8: Reference Molecule 3 (other)
light: B7 light
heavy: QIQLVQSGSELKKPGASVKVSCKASGYTFTHYAMNWVRQAPGQGLEWMGWINTNTGEPTYAQGFTGRFVFSLDTSVSTAYLQISSLKAEDTAVYYCAREREPGMDNWGQGTLVTVSS[human IgG1 constant region with changes left out]GGGGSGGGGSGGGGSDCDIEGKDGKQYESVLMVSIDQLLDSMKEIGSNSLNNEFNFFKRHISDANKEGMFLFRAARKLRQFLKMNSTGDFDLHLLKVSEGTTILLNSTGQVKGRKPAALGEAQPTKSLEENKSLKEQKKLNDLSFLKRLLQEIKTCWNKILMGTKEH
B9: Reference Molecule 4 (other)
light: B7 light
heavy: QIQLVQSGSELKKPGASVKVSCKASGYTFTHYAMNWVRQAPGQGLEWMGWINTNTGEPTYAQGFTGRFVFSLDTSVSTAYLQISSLKAEDTAVYYCAREREPGMDNWGQGTLVTVSS[human IgG1 constant region with changes left out]GGGGSGGGGSGGGGSDCDIEGKDGKQYESVLMVSIDQLLDSMKEIGSNCLNNEFNFFKRHICDANKEGMFLFRAARKLRQFLKMNSTGDFDLHLLKVSEGTTILLNCTGQVKGRKPAALGEAQPTKSLEENKSLKEQKKLNDLCFLKRLLQEIKTCHNKILMGTKEH

What follows are binders tested against T2, Human IL7Ra-IL2Rγ-Fc heterodimer (human, biotin on the avi tag) (assay: SPR, captured from supernatant, 800 nM receptor-Fc single injection).
T2 construct: Extracellular domains of IL-7Ralpha and IL-2Rgamma fused to Fc knob and Fc hole; also called hu IL7Ra-IL2Rγ-Fc avi biotin; human IL7Ra-IL2Rg-Fc biotin
Procedure: Surface Plasmon Resonacne (SPR) experiments were performed on a Biacore T200 with HBS-EP+ as running buffer (0.01 M HEPES pH 7.4, 0.15 M NaCl, 0.005% Surfactant P20 (BR-1006-69, GE Healthcare)). Fc specific antibodies (Roche internal) were directly immobilized by amine coupling on a CM5 chip (GE Healthcare). The PDI-IL7 constructs were captured from supernatants for 120 s at 100 nM. […] Only the extracellular domains were fused to Fc domains, produced in HEK Expi Cells and purified by two-step column chromatography including affinity purification via Protein A followed by size-exclusion chromatography. A single injection of 800 nM hu IL 7Ra-IL2Rγ-Fc heterodimer was passed over the ligand at 30 µ1/min for 240 sec to record the association phase. The dissociation phase was monitored for 360 s and triggered by switching from the sample solution to HBS-EP+. The chip surface was regenerated after every cycle using one injection of 10 mM glycine pH 2 for 60 sec. Bulk refractive index differences were corrected for by subtracting the response obtained on the reference flow cell 1. The response units after the capture step and at the end of the association phase were recorded and a ratio of binding to capture was calculated. The single binding curves were fitted in the dissociation phase to obtain a koff for ease of comparison (Biacore Evaluation software, GE Healthcare).
The ratio of binding to capture was calculated and the dissociation phase was fitted to a single curve to support the characterization of the off-rate.

| koff [s⁻¹] | Binder |
| --- | --- |
| 0.000947 | B1 |
| 0.00119 | B2 |
| 0.014 | B3 |
| 0.000945 | B4 |
| 0.000918 | B5 |
| 0.000611 | B6 |

Each binder was assayed against T1, IL-7Rα/IL-2Rγ on human T cells (assay: cell-based or functional assay).

| STAT5-P Area (PD1+) | STAT5-P Area (PD1 blocked) | Binder |
| --- | --- | --- |
| 104 | 81.2 | B7 |
| 0.691 | 0.751 | B8 |
| 60.8 | 44.1 | B9 |

Biological target: T1, IL-7Rα/IL-2Rγ on human T cells
Experiment: cell-based or functional assay
Remark: another data set of the same source

| fold increase in EC50, EC50 [PD1+]/EC50 PD1-IL7wt [PD1+] [fold] | Binder |
| --- | --- |
| 1.5 | B2 |
| 7.8 | B3 |
| 1.2 | B4 |

These binders were tested against human PD-1 on T cells (human, UniProt Q15116 25-288) (assay: cell-based or functional assay).
UniProt Q15116, sequence (Q15116 25-288 limits assumed): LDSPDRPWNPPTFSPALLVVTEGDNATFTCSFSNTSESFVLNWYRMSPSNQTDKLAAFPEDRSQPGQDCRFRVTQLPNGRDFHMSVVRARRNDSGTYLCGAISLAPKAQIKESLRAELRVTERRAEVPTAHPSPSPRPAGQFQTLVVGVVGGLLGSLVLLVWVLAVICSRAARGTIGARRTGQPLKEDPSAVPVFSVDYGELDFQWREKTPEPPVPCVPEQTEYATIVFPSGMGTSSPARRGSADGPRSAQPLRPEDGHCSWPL

| fold increase in EC50, EC50 [with PD1bl]/EC50 [PD1+] [fold] | Binder |
| --- | --- |
| 5 | B2 |
| 4.7 | B3 |
| 4.6 | B4 |
